# Measured values as given in PubChem BioAssay AID686978 (National Center for Advancing Translational Sciences (NCATS), 2013).
# The campaign covered roughly 420,000 compounds. About 64,000 (15%) were called active. The shares of active, inactive and inconclusive entries below differ from those in the screen. Calls come from the whole dose curve; as a rule, active = well fitted inhibition curve with a large enough effect; inconclusive = small, poorly fitted or top-dose-only effect; inactive = flat fitted curve, though single readings scatter. Potencies of inconclusive entries are left out as doubtful fits.
# Assay: qHTS for Inhibitors of human tyrosyl-DNA phosphodiesterase 1 (TDP1): qHTS in cells in absence of CPT; note: nearly all actives have a fitted effect of over 55% in size
# Conditions: DT40 Tdp1-/- hTDP1 cells, no CPT, ATP luminescence, 48 h; activity change, negative = growth inhibition: at 46.2 µM (top of the series) unless noted
# Outline: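 Compound effects on proliferation are scored in DT40 Tdp1-/-;hTDP1 cells in the absence of CPT. ATP levels (CellTiter-Glo luminescence) are recorded after a ≥48 hr, 37 °C incubation.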
# % is set by controls: 0 for no effect and ±100 for the full control effect; potency is the fitted concentration of half-maximal effect; tags give direction and shape of the fitted curve.
SMILES,"activity change, negative = growth inhibition",Potency
CC1CN(CC(=O)NCc2ccc(Cl)cc2)CC(C)O1 (centres undefined),inactive: -9.57%,–
O=c1c2c(nc3cc(-c4ccc(F)cc4)[nH]n13)CCCC2,–,"inconclusive [inhibitor, partial curve]"
C=CCn1c(SCCOc2ccc(OC)cc2)nnc1C(C)NC(=O)Cc1ccc(OC)cc1 (centres undefined),–,"inconclusive [inhibitor, single point]"
c1ccc(-c2nnc(CSc3nnc(-c4ccncc4)n3Cc3ccco3)o2)cc1,–,"inconclusive [inhibitor, single point]"
COc1ccc(N(C)S(=O)(=O)c2cccc(C(=O)OCC(=O)NCc3ccccc3OC)c2)cc1,–,"inconclusive [inhibitor, single point]"
COc1ccccc1/C=N/NC(=O)c1cccc2ccccc12,–,"inconclusive [inhibitor, single point]"
CN(Cc1ccccc1)C(=O)CN1CCN(S(=O)(=O)c2ccccc2F)CC1,–,"inconclusive [inhibitor, single point]"
CCOC(=O)C1=C2NC(=O)c3ccccc3N2C(=O)C1,inactive: -10.8%,–
COc1ccc(OC)c(S(=O)(=O)NCC(c2cccs2)N2CCc3ccccc3C2)c1 (centres undefined),–,"inconclusive [inhibitor, single point]"
COc1ccccc1N=C1SCC(=O)N1c1ccccc1OC,–,"inconclusive [inhibitor, single point]"
C[C@H](CO)N1C[C@H](C)[C@H](CN(C)S(=O)(=O)c2ccc3c(c2)OCCCO3)OCc2cnnn2CCCC1=O,inconclusive: -30.9% [inhibitor],–
O=C(Cc1c(Cl)cccc1Cl)N/N=C/c1cccnc1,inactive: 8.72%,–
COc1ccc(NC(=O)CN2C(=O)COc3ccc(S(=O)(=O)N4CCCCC4)cc32)c(OC)c1,–,"inconclusive [inhibitor, single point]"
CCOC(=O)N1CCN(C(=S)Nc2ccc3nc(N4CCN(CC)CC4)cc(C)c3c2)CC1,–,"inconclusive [inhibitor, single point]"
CCOC(=O)C1CCCCN1C(=O)CCc1c(C)nc2cc(-c3ccccc3)nn2c1C (centres undefined),–,active: 4.11 µM
Cc1cccc(-c2nn(-c3ccccc3)cc2C(=O)N2CCN(C3CCS(=O)(=O)C3)CC2)c1 (centres undefined),inactive: -5.5%,–
NC(=O)c1ccc(NC(=O)COC(=O)c2cc3ccccc3cc2O)cc1,inactive: 1.49%,–
COC(=O)C1CCN(C(=O)COC(=O)c2ccc3[nH]c4c(c3c2)CCCC4)CC1,–,active: 10.3 µM
COc1ccc(-n2nnnc2C2CCN(S(=O)(=O)c3cccc(C(F)(F)F)c3)CC2)cc1,inactive: -13.5%,–
